Test results published in the supplement of paper PMC4166925.
± gives the standard deviation of the averaged measurements. Over roughly 33,000 sequences, “E-score (dimensionless, -0.5 to 0.5)” has its median near -0.046; the highest 2% begin near 0.36. This is one part of the list.

system: T1, SpTbr T-box DNA-binding domain (GST fusion); assay: PBM E-score of 8-mer (E-score (dimensionless, -0.5 to 0.5)); Tbr is Tbrain of the sea star Patiria miniata (Pm) or the sea urchin Strongylocentrotus purpuratus (Sp); higher = stronger binding preference; most listed sequences are background and not binding sites; details: the construct has about 5 more residues each side
T1 sequence: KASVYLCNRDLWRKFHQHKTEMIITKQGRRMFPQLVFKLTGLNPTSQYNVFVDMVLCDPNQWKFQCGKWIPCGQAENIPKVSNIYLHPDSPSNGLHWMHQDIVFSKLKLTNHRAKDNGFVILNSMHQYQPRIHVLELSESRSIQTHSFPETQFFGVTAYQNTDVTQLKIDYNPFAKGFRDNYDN
Outline: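 Expression of GST-fused Tbr T-box DNA-binding domains, each holding the full T-box plus roughly five flanking residues, was carried out in BL21 E. coli at 20 °C, with purification by glutathione affinity chromatography. Universal Agilent arrays made double-stranded by primer extension were incubated with the protein at 200 nM in PBS (pH 7.5), then scanned and quantified. All ungapped 8-mers were scored from probe intensities, and each received an enrichment E-score from the Universal PBM Analysis Suite, averaged over duplicate arrays.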

Going from ACTGAACA to GAGGATAA, the “PBM E-score of 8-mer” value rises from -0.0879 ± 0.037 to 0.0223 ± 0.041.

TACACATA and AGGTAGCG are within error of each other in “PBM E-score of 8-mer” value: 0.168 ± 0.022 for the first, 0.143 ± 0.04 for the second.

AGGGCTGA and AGCAAGAG are within error of each other in “PBM E-score of 8-mer” value: -0.203 ± 0.058 for the first, -0.139 ± 0.041 for the second.

Going from GCATATGC to ACGCCGGC, the “PBM E-score of 8-mer” value rises from 0.092 ± 0.059 to 0.242 ± 0.0047.

AAGTAAAT and CTGCTTTC are within error of each other in “PBM E-score of 8-mer” value: -0.021 ± 0.0083 for the first, -0.0876 ± 0.063 for the second.

Compared with ATGGACAC, AGGGCCGA is lower in “PBM E-score of 8-mer” value: 0.0868 ± 0.031 for the first, -0.121 ± 0.017 for the second.

First: CGGTAGCA
Second: ACGCGGCA
The “PBM E-score of 8-mer” value of the first is higher: 0.276 ± 0.031 for the first, 0.0884 ± 0.039 for the second.

Compared with CAGGATGC, AGCTGTGC is higher in “PBM E-score of 8-mer” value: -0.121 ± 0.076 for the first, 0.214 ± 0.041 for the second.

AAGCATGC and GAAAAGAA are within error of each other in “PBM E-score of 8-mer” value: -0.0566 ± 0.012 for the first, -0.0353 ± 0.017 for the second.

Going from ATTTTCCC to CGACTAAG, the “PBM E-score of 8-mer” value falls from -0.0387 ± 0.042 to -0.197 ± 0.024.

Going from GGCACACC to GTATTTAA, the “PBM E-score of 8-mer” value falls from 0.314 ± 0.011 to -0.154 ± 0.091.

Compared with TCTACGAA, TCTGCAGA is lower in “PBM E-score of 8-mer” value: -0.121 ± 0.041 for the first, -0.293 ± 0.058 for the second.

Going from ATTTGATA to AGCATACT, the “PBM E-score of 8-mer” value falls from 0.0532 ± 0.066 to -0.0602 ± 0.0025.

Going from AGATCTAG to CCATACTA, the “PBM E-score of 8-mer” value falls from 0.00186 ± 0.0095 to -0.197 ± 0.077.

Compared with CTCGTACC, GCCTCGAC is higher in “PBM E-score of 8-mer” value: -0.123 ± 0.022 for the first, 0.0257 ± 0.077 for the second.

First: ACGTAAGG
Second: ACAACCTG
The “PBM E-score of 8-mer” value of the first is lower: 0.0139 ± 0.056 for the first, 0.193 ± 0.021 for the second.

Going from ATAGATAT to ATACACCA, the “PBM E-score of 8-mer” value rises from -0.135 ± 0.06 to 0.0224 ± 0.046.

Going from AGTGGGAG to AGTGTCGC, the “PBM E-score of 8-mer” value rises from -0.0084 ± 0.023 to 0.412 ± 0.016.

CTACCGAC and GCCCAGCC are within error of each other in “PBM E-score of 8-mer” value: -0.0475 ± 0.0037 for the first, -0.0449 ± 0.038 for the second.

Going from AAAACGGT to ATTTTGAC, the “PBM E-score of 8-mer” value rises from -0.0952 ± 0.074 to 0.183 ± 0.012.

Compared with ACTGATCC, AACCACCC is higher in “PBM E-score of 8-mer” value: -0.204 ± 0.025 for the first, -0.022 ± 0.044 for the second.

Compared with GACTATAA, CTGAAACC is lower in “PBM E-score of 8-mer” value: 0.00588 ± 0.016 for the first, -0.0709 ± 0.00086 for the second.

AAACAAAT and GCAAAACC are within error of each other in “PBM E-score of 8-mer” value: 0.0768 ± 0.075 for the first, 0.0522 ± 0.077 for the second.

First: CAATTACG
Second: AATCACAG
The “PBM E-score of 8-mer” value of the first is lower: -0.0652 ± 0.01 for the first, 0.06 ± 0.051 for the second.

First: CCCTAGAA
Second: CAGAACGG
The “PBM E-score of 8-mer” value of the first is lower: -0.163 ± 0.011 for the first, -0.0617 ± 0.055 for the second.

Compared with ACACGTAT, CGTCCCGA is lower in “PBM E-score of 8-mer” value: 0.298 ± 0.015 for the first, -0.121 ± 0.015 for the second.

Compared with CGAAATTC, AAGTACCT is lower in “PBM E-score of 8-mer” value: -0.00067 ± 0.073 for the first, -0.306 ± 0.038 for the second.

Compared with ACGATCAC, ATGCTGGC is lower in “PBM E-score of 8-mer” value: 0.119 ± 0.031 for the first, -0.026 ± 0.013 for the second.

AATAGCCC and ATTGGTTA are within error of each other in “PBM E-score of 8-mer” value: -0.194 ± 0.016 for the first, -0.129 ± 0.053 for the second.

Compared with CGGAAATA, AACTGCTT is higher in “PBM E-score of 8-mer” value: -0.121 ± 0.017 for the first, 0.0483 ± 0.064 for the second.

Compared with ACGCCGCG, TACGCGGA is lower in “PBM E-score of 8-mer” value: 0.124 ± 0.0048 for the first, -0.17 ± 0.059 for the second.

AGAATGTA and CCCGAACA are within error of each other in “PBM E-score of 8-mer” value: -0.133 ± 0.04 for the first, -0.104 ± 0.0019 for the second.

First: GGTTGCAA
Second: CCATATCC
The “PBM E-score of 8-mer” value of the first is higher: 0.145 ± 0.0094 for the first, -0.2 ± 0.031 for the second.

Compared with AGGGCGAT, GCCTTCGC is higher in “PBM E-score of 8-mer” value: 0.0278 ± 0.053 for the first, 0.296 ± 0.0037 for the second.

First: CGTGCGAA
Second: ACCCAAAA
The “PBM E-score of 8-mer” value of the first is higher: 0.4443 ± 0.0016 for the first, -0.0829 ± 0.014 for the second.

Compared with CAAGGCAA, GGTACGTA is lower in “PBM E-score of 8-mer” value: 0.0698 ± 0.018 for the first, -0.194 ± 0.033 for the second.

Going from TATATACA to ACCCGGCG, the “PBM E-score of 8-mer” value rises from -0.0689 ± 0.021 to 0.0822 ± 0.0058.

AGCAGACT and CTATTTCC are within error of each other in “PBM E-score of 8-mer” value: -0.0259 ± 0.0065 for the first, -0.0557 ± 0.046 for the second.

Compared with CAGACTGA, CACACCCC is higher in “PBM E-score of 8-mer” value: -0.25 ± 0.036 for the first, 0.419 ± 0.025 for the second.

Compared with ACATACGT, ATAGGTCA is lower in “PBM E-score of 8-mer” value: -0.0435 ± 0.038 for the first, -0.207 ± 0.043 for the second.

First: AGGGGGTG
Second: CGCCTGAA
The “PBM E-score of 8-mer” value of the first is higher: 0.269 ± 0.055 for the first, -0.141 ± 0.027 for the second.

Compared with GAATTTAC, ACAATGAC is higher in “PBM E-score of 8-mer” value: -0.0912 ± 0.033 for the first, 0.0379 ± 0.0064 for the second.

ACAGGCTG and ACGGGAAA are within error of each other in “PBM E-score of 8-mer” value: -0.0369 ± 0.043 for the first, -0.0252 ± 0.065 for the second.
